The campaign covered roughly 2,700 compounds. About 160 (5.9%) showed an effect of 50% or more. This is one part of the list.
Molecular target: Nonstructural protein 3 (Zika virus) (UniProt A0A024AXB9)
[1] = PRVABC59, Concentration 15.0 uM, Number of replicates 1.0
[2] = PRVABC59, Concentration 50.0 uM, Number of replicates 1.0
[3] = PRVABC59, Concentration 10.0 uM, Number of replicates 1.0

Chain of UniProt A0A024AXB9 (A0A024AXB9 as listed by the source): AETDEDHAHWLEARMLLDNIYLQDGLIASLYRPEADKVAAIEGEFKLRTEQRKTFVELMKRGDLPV

CN(C)CCNC(=O)c1ccc(N2CCNCC2)nc1
inhibition (PRVABC59, Concentration 49.5 uM, Number of replicates 2.0, Standard deviation 7.0436202668286345 %): -2.56% | inhibition (PRVABC59, Concentration 99.01 uM, Number of replicates 2.0, Standard deviation 7.410877958096317 %): 0.074% | inhibition (PRVABC59, Concentration 198.0 uM, Number of replicates 2.0, Standard deviation 5.611314242501571 %): 7.79%

COc1ccc(CNC(=O)c2cc(Cl)ccc2NS(=O)(=O)c2ccc(Oc3ccccc3Cl)cc2)c(Cl)c1
inhibition [1]: 29.1%

CCN(CC)C1CCN(C(=O)c2cc(Cl)ccc2NS(=O)(=O)c2ccc(Oc3ccccc3Cl)cc2)CC1
inhibition [1]: 7.01%

CC(=O)Nc1ccc(NC(=O)C2CCN(c3ccc(C=O)cc3)CC2)c(C(F)(F)F)c1
inhibition [2]: 25.8%

Cc1cnc(NC(=O)c2cc(Cl)ccc2NS(=O)(=O)c2ccc(Oc3ccccc3Cl)cc2)c([N+](=O)[O-])c1
inhibition [1]: 21.8%

CC(C)Nc1nc2cc(NC(=O)[C@@H](NC(=O)OC(C)(C)C)c3ccccc3)ccc2[nH]1
inhibition (PRVABC59, Concentration 49.5 uM, Number of replicates 2.0, Standard deviation 2.4721512163265067 %): -4.72% | inhibition (PRVABC59, Concentration 99.01 uM, Number of replicates 2.0, Standard deviation 1.6891710041010715 %): -5.09% | inhibition (PRVABC59, Concentration 198.0 uM, Number of replicates 2.0, Standard deviation 1.579871413270376 %): -4.79%

Cc1cc(C)n(CCCNC(=O)C2CCN(c3ccc(C=O)cc3)CC2)n1
inhibition [2]: 18%

COc1cccc(C(=O)N2CCN(C(=O)c3cc(Cl)ccc3NS(=O)(=O)c3ccc(Oc4ccccc4Cl)cc3)CC2)c1
inhibition [1]: 15.9%

CC(C)(CO)NC(=O)c1cc(Cl)cc(NC(=O)Cc2cccc(N3CCOCC3)c2)c1
inhibition (PRVABC59, Concentration 49.5 uM, Number of replicates 2.0, Standard deviation 3.0522593855592395 %): -2.52% | inhibition (PRVABC59, Concentration 99.01 uM, Number of replicates 2.0, Standard deviation 3.368926317951112 %): -0.793% | inhibition (PRVABC59, Concentration 198.0 uM, Number of replicates 2.0, Standard deviation 2.506775358140388 %): 0.389%

Cc1cnccc1NC(=O)c1cnn2cc[nH]c(=O)c12
inhibition (PRVABC59, Concentration 49.5 uM, Number of replicates 2.0, Standard deviation 3.1855058832148018 %): -2.33% | inhibition (PRVABC59, Concentration 99.01 uM, Number of replicates 2.0, Standard deviation 1.1475735667568987 %): -0.754% | inhibition (PRVABC59, Concentration 198.0 uM, Number of replicates 2.0, Standard deviation 1.9515946474314843 %): 2.12%

O=C(N[C@H]1CCC[C@@H]1OCc1ccccc1)c1cc(Cl)ccc1NS(=O)(=O)c1ccc(Oc2ccccc2Cl)cc1
inhibition [1]: 23.2%

CCn1ncc(Cc2cc(OC)nc(N3CCNCC3)n2)c1F
inhibition (PRVABC59, Concentration 49.5 uM, Number of replicates 2.0, Standard deviation 0.4929738167681589 %): -2.24% | inhibition (PRVABC59, Concentration 99.01 uM, Number of replicates 2.0, Standard deviation 1.24071987476779 %): -1.01% | inhibition (PRVABC59, Concentration 198.0 uM, Number of replicates 2.0, Standard deviation 1.039801955918316 %): 0.707%

Cc1cn(-c2cc(NC(=O)C3CCN(c4ccc(C=O)cc4)CC3)cc(C(F)(F)F)c2)cn1
inhibition [2]: 26.3%

NCc1ccc(C[C@H](NC(=O)c2ccccc2)C(=O)Nc2cccc(C(N)=O)c2)cc1
inhibition (PRVABC59, Concentration 49.5 uM, Number of replicates 2.0, Standard deviation 1.1625470591881177 %): 1.5% | inhibition (PRVABC59, Concentration 99.01 uM, Number of replicates 2.0, Standard deviation 0.3259107899415248 %): 6.8% | inhibition (PRVABC59, Concentration 198.0 uM, Number of replicates 2.0, Standard deviation 1.1645342830954064 %): 14.4%

O=C(c1cc(Cl)ccc1NS(=O)(=O)c1ccc(Oc2ccccc2Cl)cc1)N(Cc1ccc2c(c1)OCO2)C1CCCC1
inhibition [1]: 23.2%

O=Cc1ccc(N2CCC(C(=O)NCc3coc(-c4ccccc4)n3)CC2)cc1
inhibition [3]: 8.56%

O=C(c1cc(Cl)ccc1NS(=O)(=O)c1ccc(Oc2ccccc2Cl)cc1)N1CCC(O)(c2ccc(Cl)cc2)CC1
inhibition [1]: 26.1%

Cc1ccc(CNC(=O)C2CCN(c3ccc(C=O)cc3)CC2)c(F)c1F
inhibition [3]: 9.65%

CN(Cc1ccccc1NC(=O)c1cc(Cl)ccc1NS(=O)(=O)c1ccc(Oc2ccccc2Cl)cc1)C1CCCCC1
inhibition [1]: -4.47%

O=C(Nc1ccc(SC(F)(F)F)cc1)c1cc(Cl)ccc1NS(=O)(=O)c1ccc(Oc2ccccc2Cl)cc1
inhibition [1]: 45.3%

O=Cc1ccc(N2CCC(C(=O)Nc3c(Cl)cncc3Cl)CC2)cc1
inhibition [2]: 23%

OB1OCc2ccc(N3CC[C@@H](O)C3)cc21
inhibition (PRVABC59, Concentration 99.5 uM, Number of replicates 2.0, Standard deviation 3.8840673539872728 %): 2.1% | inhibition (PRVABC59, Concentration 198.0 uM, Number of replicates 2.0, Standard deviation 4.077392335002136 %): 10.3%

Cc1cc(CO)c2cccc(Cc3cccc(NC(=O)Cc4nnc(C)[nH]4)c3)c2n1
inhibition (PRVABC59, Concentration 49.95 uM, Number of replicates 2.0, Standard deviation 1.129082461470468 %): 2.52% | inhibition (PRVABC59, Concentration 99.9 uM, Number of replicates 2.0, Standard deviation 0.15054449678345644 %): 12.9%

Cc1cc(CO)c2cccc(NCc3ccc(C)o3)c2n1
inhibition (PRVABC59, Concentration 49.95 uM, Number of replicates 2.0, Standard deviation 1.0644564227188946 %): -0.678% | inhibition (PRVABC59, Concentration 99.9 uM, Number of replicates 2.0, Standard deviation 1.1350838565970554 %): 0.478%

O=C(Nc1ccc(Br)c2ccccc12)c1cc(Cl)ccc1NS(=O)(=O)c1ccc(Oc2ccccc2Cl)cc1
inhibition [1]: 21.9%

c1ccc2[nH]c(CC3CCN(c4ncnc5[nH]ccc45)CC3)nc2c1
inhibition (PRVABC59, Concentration 49.5 uM, Number of replicates 2.0, Standard deviation 0.8729323765409018 %): -3.7% | inhibition (PRVABC59, Concentration 99.01 uM, Number of replicates 2.0, Standard deviation 2.6991147561762485 %): 1.52% | inhibition (PRVABC59, Concentration 198.0 uM, Number of replicates 2.0, Standard deviation 4.214592802372255 %): 7.18%

O=C(c1cc(Cl)ccc1NS(=O)(=O)c1ccc(Oc2ccccc2Cl)cc1)N1CCC(N2CCCC2=O)CC1
inhibition [1]: -2.59%

Reference: ChEMBL document CHEMBL5606458, “ASAP - ZIKV NS2B-NS3 protease fluorescence single point” (2024)
